The values below come from publication PMC4336329 (PLoS ONE, 2015).

Molecules are shown by their SMILES. Among all 310,000 compounds or so, about 2,200 (0.71%) showed an effect of 50% or more. The effect is printed as a negative number. The list shows a part of the results.

For this experiment, the target named is human ether-à-go-go-related gene (hERG) potassium channel (human, UniProt Q12809). As to the kind of experiment: primary screen, population patch clamp on CHO cells stably expressing hERG.
Chain of human ether-à-go-go-related gene (hERG) potassium channel (Q12809 whole entry, looked up): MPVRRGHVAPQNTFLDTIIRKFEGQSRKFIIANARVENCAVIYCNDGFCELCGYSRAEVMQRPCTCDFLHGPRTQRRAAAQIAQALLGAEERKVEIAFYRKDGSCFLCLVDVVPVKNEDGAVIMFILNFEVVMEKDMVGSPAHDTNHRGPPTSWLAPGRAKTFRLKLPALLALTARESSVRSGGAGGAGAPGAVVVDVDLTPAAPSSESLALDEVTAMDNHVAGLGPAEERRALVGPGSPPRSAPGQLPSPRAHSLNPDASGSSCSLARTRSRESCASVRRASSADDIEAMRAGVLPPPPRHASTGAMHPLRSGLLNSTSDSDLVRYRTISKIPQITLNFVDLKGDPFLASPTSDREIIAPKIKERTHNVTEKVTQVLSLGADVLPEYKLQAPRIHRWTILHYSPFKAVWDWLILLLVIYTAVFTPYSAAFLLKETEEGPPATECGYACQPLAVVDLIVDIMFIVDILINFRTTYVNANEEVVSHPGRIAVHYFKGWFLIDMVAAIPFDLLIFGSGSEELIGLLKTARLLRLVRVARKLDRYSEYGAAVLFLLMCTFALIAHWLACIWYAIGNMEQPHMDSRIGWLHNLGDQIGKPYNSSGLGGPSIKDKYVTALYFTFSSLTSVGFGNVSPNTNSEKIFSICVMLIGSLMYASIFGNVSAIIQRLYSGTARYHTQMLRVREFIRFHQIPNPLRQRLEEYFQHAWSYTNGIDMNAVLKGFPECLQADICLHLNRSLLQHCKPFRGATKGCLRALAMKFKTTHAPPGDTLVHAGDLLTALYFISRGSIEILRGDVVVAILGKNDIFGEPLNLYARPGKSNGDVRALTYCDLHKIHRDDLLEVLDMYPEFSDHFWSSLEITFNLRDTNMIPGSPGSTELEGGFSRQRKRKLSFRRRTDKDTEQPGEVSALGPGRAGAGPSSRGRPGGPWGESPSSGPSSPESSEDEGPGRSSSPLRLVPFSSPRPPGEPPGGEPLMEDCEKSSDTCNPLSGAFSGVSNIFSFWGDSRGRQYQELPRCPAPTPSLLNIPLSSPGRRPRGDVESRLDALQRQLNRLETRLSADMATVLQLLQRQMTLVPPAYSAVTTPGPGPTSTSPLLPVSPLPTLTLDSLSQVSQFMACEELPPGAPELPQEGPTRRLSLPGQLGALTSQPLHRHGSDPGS
With `COc1ccccc1NC(=O)c1ccc2c(c1)C(=O)N(Cc1ccco1)C2=O`, the “hERG current change (%, negative = inhibition) at 1uM” value stood at 14.1%. Turning to `CSc1nnc2c3ccccc3n(Cc3ccccc3)c2n1`, the “hERG current change (%, negative = inhibition) at 1uM” value turned out to be 19.2%. The figure for `Cc1ccc(C)c(NC(=O)COC(=O)c2ccc3c(c2)OCO3)c1` is 15.1%.

`Cc1ccc(NC(=S)NCCN2CCOCC2)cc1C`: the “hERG current change (%, negative = inhibition) at 1uM” value is listed as -3.6%. In the case of `O=C(Nc1cc(=O)[nH]c2ncnn12)c1ccc(Cl)cc1Cl`, the “hERG current change (%, negative = inhibition) at 1uM” value is recorded as -2.66%. The figure for `CC1CC(C)CN(C(=O)c2ccc(S(=O)(=O)N3CCCCC3)cc2)C1` (stereo not drawn) is 11.1%; for `COc1ccccc1COc1ccc2c(C)c(CCC(=O)O)c(=O)oc2c1C` it is 14%. To `Cc1cc(NC(=O)CSCC(=O)N2CCN(c3cccc(C)c3C)CC2)no1` belongs 6.26%. Consider `CCC(Oc1ccc(C)cc1)C(=O)Nc1ccc2c(c1)n(C)c(=O)n2C` (stereo not drawn), for which the “hERG current change (%, negative = inhibition) at 1uM” value is recorded as 12%. For the molecule `N#CCCCn1c(=O)oc2ccccc21`, the “hERG current change (%, negative = inhibition) at 1uM” value was 10%. `CC1CC(C)CN(C(=O)CSc2nnc(CSc3ncccn3)n2C)C1` (stereo not drawn): the “hERG current change (%, negative = inhibition) at 1uM” value is 14.1%. The figure for `CN(C)c1cccc2c(S(=O)(=O)N3CCOCC3)cccc12` is 1.32%.

As for `CCCn1nc(NS(=O)(=O)c2cccc3nonc23)c2cc3cccc(C)c3nc21`, the “hERG current change (%, negative = inhibition) at 1uM” value is 9.2%. The figure for `CCc1sc(C(=O)Nc2ncccc2O)cc1C` is 3.73%; for `O=C(CN1C(=O)S/C(=C/c2cccnc2)C1=O)N1CCOCC1` it is 8.39%; for `COc1ccc(CC(=O)N/N=C/c2cccnc2)cc1OC` it is 10.4%.

As to `COc1cc(NS(=O)(=O)c2ccc(N/C=C(\C=O)c3nc4ccccc4o3)cc2)nc(OC)n1`, the “hERG current change (%, negative = inhibition) at 1uM” value is reported as 14.2%. To `N#Cc1c(OCC(=O)c2ccccc2)nc2c(c1-c1ccco1)CCc1ccccc1-2` belongs 7.81%; to `CCN(CC)C(=O)CSc1nc2cc3c(cc2c(=O)n1CCCC(=O)NCCc1ccc(OC)c(OC)c1)OCO3`, 0.696%. `CC(OC(=O)c1ccc2ncsc2c1)C(=O)N(C)C1CCCCC1` (stereo not drawn): the “hERG current change (%, negative = inhibition) at 1uM” value turned out to be 9.47%. To `O=C(NCc1ccc(F)cc1)C(c1ccco1)N(C(=O)c1csnn1)C1CC1` (stereo not drawn) belongs 9.29%; to `COCCCN1C(=O)c2[nH]nc(-c3cc(C)cc(C)c3O)c2C1c1ccc(O)c(OC)c1` (stereo not drawn), 6.9%. The figure for `O=C(NCc1ccccc1)c1ccc(S(=O)(=O)NCc2ccco2)cc1` is 8.84%; for `N#Cc1c(NC(=O)CCn2cnc3ccccc3c2=O)oc(-c2ccccc2)c1-c1ccccc1` it is 7%; for `CCOC(=O)C1CCCc2c1[nH]c1c(C(=O)O)cccc21` (stereo not drawn) it is 10.2%. `COC(=O)C(C)N(C#N)c1nc(C)nc(C)n1` (stereo not drawn): the “hERG current change (%, negative = inhibition) at 1uM” value was found to be 3.74%. `N#Cc1c(-c2ccccc2)nc(SCc2ccc(Cl)cc2)[nH]c1=O`: the “hERG current change (%, negative = inhibition) at 1uM” value stood at 16.5%. Regarding `Cc1cc(NC(=O)CSc2nnnn2-c2ccccc2F)no1`, the “hERG current change (%, negative = inhibition) at 1uM” value was found to be 21.3%. The figure for `O=C(NC(=S)Nc1nc(-c2ccc(Br)cc2)cs1)c1cccnc1` is 12.5%.

`Cc1ccc2[nH]c(=O)c(CN(C)C(=O)c3cccs3)cc2c1`: the “hERG current change (%, negative = inhibition) at 1uM” value turned out to be 16.2%.

On to `O=C(O)c1ccccc1C(=O)N(Cc1ccccc1)Cc1ccccc1`, for which the “hERG current change (%, negative = inhibition) at 1uM” value is 13.7%. To `NS(=O)(=O)c1ccc(C(=O)O)cc1` belongs 8.05%; to `COc1ccc(NC(=S)NCc2ccco2)c(OC)c1`, 4.26%.

Consider `Cc1c(-c2ccccc2)nc(N)c(C#N)c1-c1cccnc1`, for which the “hERG current change (%, negative = inhibition) at 1uM” value is given as 5.2%. The figure for `O=c1cc(Nc2ccc3c(c2)OCCO3)[nH]c(=O)n1-c1ccc(Br)cc1` is 15.2%; for `CCOC(=O)c1ccc(NC(=O)NCc2ccccn2)cc1` it is 8.88%. Consider `COc1cc(-c2nn3c(Cc4ccccc4)nnc3s2)cc(OC)c1OC`, for which the “hERG current change (%, negative = inhibition) at 1uM” value turned out to be 6.91%. The figure for `Br.CCCCCCCCn1c2c(c(=N)c3c1CCC3)CCCC2` is -84.6%; for `C#Cc1ccc([C@H]2C=C(C(=O)N3CCN(Cc4ccc5c(c4)OCO5)CC3)O[C@@H](OCC)[C@@H]2CCCO)cc1` it is 6.87%. `COc1ccc2nc(Nc3ccccc3)sc2c1`: the “hERG current change (%, negative = inhibition) at 1uM” value stood at 24.2%.

`Cc1ccc(S(=O)(=O)NCCc2ccncc2)cc1[N+](=O)[O-]`: the “hERG current change (%, negative = inhibition) at 1uM” value is on record as 21%. In the case of `CCN1C(=O)C(CC(=O)Nc2ccc(OC)cc2)N(Cc2cccs2)C1=S` (stereo not drawn), the “hERG current change (%, negative = inhibition) at 1uM” value was determined as 1.47%. The figure for `O=C(Nc1ccc(O)cc1C(=O)O)c1ccc(NC(=O)c2ccco2)cc1` is 11.2%; for `COc1ccc(C(=O)Nc2cc(C)nc3ccccc23)cc1OC` it is 13.4%; for `CCOC(=O)c1sc(=NC(=O)/C=C/c2cccs2)n(C)c1C` it is 7.02%. As for `CCOc1ccc(C(=O)OCCN(C)C)cc1.Cl`, the “hERG current change (%, negative = inhibition) at 1uM” value was determined as 8.1%. To `Fc1ccccc1-c1nc2c(s1)CCc1onc(-c3ccc(Br)cc3)c1-2` belongs 10.1%. The figure for `Cc1cc(=O)n2c(n1)NC(Nc1cccc(C)c1C)=NC2c1ccc(F)cc1` (stereo not drawn) is 13.3%; for `Cc1c(C)n(Cc2ccccc2)c2ccc(C(=O)O)cc12` it is 11.3%; for `O=C(COc1ncnc2ccccc12)NCCc1ccccc1` it is 6.8%. To `COc1ccc(Cc2nnc(SCC(=O)Nc3ccc(C)cc3)n(N)c2=O)cc1` belongs 9.78%; to `O=C(Nc1cccc(Cl)c1)c1cccc(Oc2ccc([N+](=O)[O-])cc2Cl)c1`, 8.17%; to `Cl.c1ccc2c(c1)oc1c(N3CCOCC3)ncnc12`, 6.59%. Consider `NC(=O)NCc1ccccc1F`, for which the “hERG current change (%, negative = inhibition) at 1uM” value was determined as 11.3%. As for `CCc1cc(-c2n[nH]c(C)c2-c2nc3ccccc3n2C)c(O)c(CN2CCN(C)CC2)c1O`, the “hERG current change (%, negative = inhibition) at 1uM” value is given as -10.1%. Consider `CC(C)C[C@H]1CNC(=O)C(=O)N1C[C@H](C)NC(=O)Cc1ccccc1`, for which the “hERG current change (%, negative = inhibition) at 1uM” value was found to be 7.44%. The figure for `CC1C(=O)N(c2ccc(S(=O)(=O)N(C)C)cc2)C1(/C=C/c1ccccc1)C(=O)NC1CCCC1` (stereo not drawn) is 20.3%; for `CCN(CC)CCCNC(=O)Cn1nc(-c2ccccc2)ccc1=O` it is -22%.

Take `CCOc1cc(CNc2cccc3[nH]c(C)nc23)ccc1OC.Cl`: the “hERG current change (%, negative = inhibition) at 1uM” value was 17.5%. The figure for `O=C(C1CCCN1S(=O)(=O)c1cccc2cccnc12)N1CCN(c2ccccc2)CC1` (stereo not drawn) is -10.5%. The figure for `COC(=O)c1cc2ccccc2oc1=O` is 9.87%; for `COc1ccc(/C=N/NC(=O)CCn2c3ccccc3c3ccccc32)cc1OC` it is 1.17%. The figure for `Cc1nnc(SCCCOc2ccccc2)nc1C` is 6.8%; for `COc1ccc(S(=O)(=O)N2CCCCCC2)cc1C(=O)N(C)Cc1ccc(C(C)(C)C)cc1` it is 11.8%.

Turning to `Cc1cc(O)c(C(C)C)cc1NC(=O)c1ccccc1Cl`, the “hERG current change (%, negative = inhibition) at 1uM” value is -0.168%. The figure for `Fc1ccccc1NC(=S)N1CCN(Cc2ccccc2)CC1` is 7.44%. Take `C=CC(O)(C#CCN(CC)CC)c1ccccc1` (stereo not drawn): the “hERG current change (%, negative = inhibition) at 1uM” value came to 5.23%. The figure for `CCC(C)(C)C1CCC(=NNC(=O)c2ccoc2C)CC1` (stereo not drawn) is 9.14%; for `COC(=O)N1C(=O)[C@](c2ccc(Cl)cc2)(C(C)C)N1C(=O)OC` it is 10.8%.

`CC(NCc1cccn1C)c1ccccc1.Cl` (stereo not drawn): the “hERG current change (%, negative = inhibition) at 1uM” value is -5.71%. With `Cc1ccc(NC(=S)N2CCN(S(C)(=O)=O)CC2)cc1C`, the “hERG current change (%, negative = inhibition) at 1uM” value was found to be 8.13%. To `CC1CCc2sc(C(=O)NCc3ccc(F)cc3)cc2C1` (stereo not drawn) belongs -5.45%; to `O=C(Nc1ccc2c(c1)OCCO2)C(=O)NC1CC1`, 13.9%.

For `C/C(=N/NC(=O)c1cc(C(C)C)[nH]n1)c1cccs1`, the “hERG current change (%, negative = inhibition) at 1uM” value worked out at 11.3%. `CCOC(=O)[C@@H]1[C@H]2COc3ccccc3[C@@H]2N2C(=O)N(c3ccc(C(F)(F)F)cc3)C(=O)[C@]12C`: the “hERG current change (%, negative = inhibition) at 1uM” value is given as -0.838%. To `CSCCCNC(=S)N(C)CC(=O)Nc1ccc(C)cc1` belongs 16%. To `CCCCn1c(N)c(N(CCC(C)C)C(=O)CC2CCCCC2)c(=O)[nH]c1=O` belongs 10%. To `COc1cc(-c2ccccc2)nc2ccccc12` belongs 3.75%; to `N#CC1=C2SCN(c3ccccc3)CN2C(=O)CC1c1ccccc1Cl` (stereo not drawn), 10.6%. For the molecule `COc1cc([N+](=O)[O-])ccc1NC(=O)CN1CCN(C(=O)c2ccco2)CC1`, the “hERG current change (%, negative = inhibition) at 1uM” value is -47.5%. To `Cc1ccnc(NC(=O)CNC(=O)c2ccc3ccccc3c2)c1` belongs 9.32%; to `Cc1ccccc1NC(=O)Cc1nc(COC(=O)c2cc(Br)ccc2O)cs1`, 9.06%.

As for `O=C1CN(c2nc(-c3cccnc3)nc3scc(-c4ccccc4)c23)CCN1`, the “hERG current change (%, negative = inhibition) at 1uM” value turned out to be 1.65%.

Regarding `CC(C)OC(=O)c1cc(NC(=S)Nc2ccc([N+](=O)[O-])cc2)cc(C(=O)OC(C)C)c1`, the “hERG current change (%, negative = inhibition) at 1uM” value was 13.3%. Consider `COc1ccc(NC(=O)c2cc(S(=O)(=O)N3CCOCC3)ccc2N2CCOCC2)cc1`, for which the “hERG current change (%, negative = inhibition) at 1uM” value worked out at 3.97%.

With `C=CCn1c(C)cc(C(=O)COC(=O)C2CC(=O)N(CCc3ccc(OC)c(OC)c3)C2)c1C` (stereo not drawn), the “hERG current change (%, negative = inhibition) at 1uM” value is listed as 7.4%.

With `CC1CC(C)CN(C(=O)CSc2nnc(-c3ccco3)o2)C1` (stereo not drawn), the “hERG current change (%, negative = inhibition) at 1uM” value came to 4.69%.

Turning to `O=C(NCc1ccc2c(c1)OCO2)c1cc(-c2cc(Cl)ccc2O)n[nH]1`, the “hERG current change (%, negative = inhibition) at 1uM” value was determined as 13.5%. Regarding `Cc1ccc(C(=O)NCc2ccco2)c(C)c1`, the “hERG current change (%, negative = inhibition) at 1uM” value is 17.4%. The figure for `O=C(COc1ccccc1)NCc1n[nH]c(=S)n1-c1ccccc1` is 18.5%.
